In all, about 81,000 sequences were measured (“one-hybrid fitness for binding NBS DNA”: median about -0.1, highest 2% from about 0.36 on). This is one part of the list.
B1: Caulobacter ParB omega fusion; a variant is named by its letters at X, in order, B8GW30 (parent)
chain: MESVVVGEPGMSEGRRGLGRGLSALLGEVDAAPAQAPGEQLGGSREAPIEILQRNPDQPRRTFREEDLEDLSNSIREKGVLQPILVRPSPDTAGEYQIVAGERAWRAAQRAGLKTVPIMVRELDDLAVLEIGIIENVQRADLNVLEEALSYKVLMEKFERTQENIAQTIGKSXSHVANXMRLLXLPDEVQSYLVSGELTAXHARAIAAAADPVALAKQIIEGGLSVRETEALARKAPNLSAGKSKGGRPPRVKDTDTQALESDLSSVLGLDVSIDHRGSTGTLTITYATLEQLDDLCNRLTRGI

Variants of: B1
Assay: one-hybrid fitness for binding NBS DNA (the Noc-binding site; scaled: cognate 1, non-cognate 0); higher = stronger binding
Details: with NBS DNA site
Method in brief: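 Fitness here means the log change in variant-to-wild-type read ratio between plasmids sequenced before and after selection. That scale was set so cognate equals 1 and non-cognate equals 0. The selection was a bacterial one-hybrid screen of Caulobacter ParB libraries, four specificity codons randomised, in E. coli USO carrying a HIS3 reporter with the site 19 bp from the promoter, grown 48 hours at 37°C on M9-minus-histidine with 0.1 mM IPTG and 5 mM 3-AT.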

| Variant | one-hybrid fitness for binding NBS DNA |
| --- | --- |
| SSDS | ≤ 0.2 |
| CVGK | ≤ 0.2 |
| GSLD | ≤ 0.2 |
| AMWC | ≤ 0.2 |
| FMNG | ≤ 0.2 |
| LGLR | ≤ 0.2 |
| PWTW | ≤ 0.2 |
| WVNC | ≤ 0.2 |
| VSRW | ≤ 0.2 |
| ASTS | ≤ 0.2 |
| QDTK | ≤ 0.2 |
| TPFC | ≤ 0.2 |
| AIRY | ≤ 0.2 |
| TWES | ≤ 0.2 |
| MKAC | ≤ 0.2 |
| LITQ | ≤ 0.2 |
| RPVQ | 0.397 |
| RKEV | ≤ 0.2 |
| SKMQ | ≤ 0.2 |
| MWNS | ≤ 0.2 |
| GHYT | ≤ 0.2 |
| IAPE | ≤ 0.2 |
| VFSN | ≤ 0.2 |
| ITMC | ≤ 0.2 |
| APWE | ≤ 0.2 |
| KCMT | ≤ 0.2 |

| Variant | one-hybrid fitness for binding NBS DNA |
| --- | --- |
| ETSA | ≤ 0.2 |
| EIIG | ≤ 0.2 |
| SKYD | ≤ 0.2 |
| SFQG | ≤ 0.2 |
| TVNP | ≤ 0.2 |
| RTII | ≤ 0.2 |
| HALL | ≤ 0.2 |
| DSHC | ≤ 0.2 |
| GWGD | ≤ 0.2 |
| IHNC | ≤ 0.2 |
| ALLY | ≤ 0.2 |
| SHMI | ≤ 0.2 |
| PCMT | ≤ 0.2 |
| RQIY | ≤ 0.2 |
| TTKA | ≤ 0.2 |
| KSHG | ≤ 0.2 |
| TEPS | ≤ 0.2 |
| VTFG | ≤ 0.2 |
| YKHS | ≤ 0.2 |
| LWHN | ≤ 0.2 |
| GQPL | ≤ 0.2 |
| HSDC | ≤ 0.2 |
| RPQN | ≤ 0.2 |
| TASW | ≤ 0.2 |
| LMNP | ≤ 0.2 |
| ANDS | ≤ 0.2 |

| Variant | one-hybrid fitness for binding NBS DNA |
| --- | --- |
| KVQS | ≤ 0.2 |
| GMHD | ≤ 0.2 |
| NKTF | ≤ 0.2 |
| CQLR | ≤ 0.2 |
| SGAL | ≤ 0.2 |
| SRLL | ≤ 0.2 |
| VQDR | ≤ 0.2 |
| WIMG | ≤ 0.2 |
| LTFA | ≤ 0.2 |
| TSGY | ≤ 0.2 |
| ELMG | ≤ 0.2 |
| ITWM | ≤ 0.2 |
| FHKY | ≤ 0.2 |
| NITG | ≤ 0.2 |
| GWSM | ≤ 0.2 |
| RRSA | 0.605 |
| CYRT | ≤ 0.2 |
| GTHH | ≤ 0.2 |
| KNLW | ≤ 0.2 |
| ICAS | ≤ 0.2 |
| DTWE | ≤ 0.2 |
| CNCN | ≤ 0.2 |
| LPRY | ≤ 0.2 |
| FWHR | 0.228 |
| NPCI | ≤ 0.2 |
| SVWD | ≤ 0.2 |

| Variant | one-hybrid fitness for binding NBS DNA |
| --- | --- |
| VRYS | ≤ 0.2 |
| RVLD | ≤ 0.2 |
| DLII | ≤ 0.2 |
| LTPI | ≤ 0.2 |
| KTKQ | ≤ 0.2 |
| MPTG | ≤ 0.2 |
| QNPK | ≤ 0.2 |
| DIRN | ≤ 0.2 |
| LILK | ≤ 0.2 |
| NPIS | ≤ 0.2 |
| FCIG | ≤ 0.2 |
| HWSR | ≤ 0.2 |
| MNCS | ≤ 0.2 |
| TNAR | ≤ 0.2 |
| TRAF | ≤ 0.2 |
| HFGR | ≤ 0.2 |
| ATSN | ≤ 0.2 |
| QGRH | ≤ 0.2 |
| RWNM | ≤ 0.2 |
| TVCS | ≤ 0.2 |
| YVQM | ≤ 0.2 |
| KTPY | ≤ 0.2 |
| YGLL | ≤ 0.2 |
| VLLD | ≤ 0.2 |
| HFFR | ≤ 0.2 |
| GSRM | ≤ 0.2 |

| Variant | one-hybrid fitness for binding NBS DNA |
| --- | --- |
| PLYW | ≤ 0.2 |
| HPTG | ≤ 0.2 |
| RSKE | ≤ 0.2 |
| RTWG | ≤ 0.2 |
| TAYF | ≤ 0.2 |
| VKQC | ≤ 0.2 |
| EMWS | ≤ 0.2 |
| WPPP | ≤ 0.2 |
| VRDC | ≤ 0.2 |
| NMMT | ≤ 0.2 |
| DMVR | ≤ 0.2 |
| RTCF | ≤ 0.2 |
| RSHG | ≤ 0.2 |
| TAEG | ≤ 0.2 |
| WVHV | ≤ 0.2 |
| SSPA | ≤ 0.2 |
| IMPE | ≤ 0.2 |
| LGHV | ≤ 0.2 |
| PDGL | ≤ 0.2 |
| RYQT | 0.381 |
| DSDT | ≤ 0.2 |
| YEHG | ≤ 0.2 |
| PCEW | ≤ 0.2 |
| RIVW | ≤ 0.2 |
| RVND | ≤ 0.2 |
| ALKC | ≤ 0.2 |

| Variant | one-hybrid fitness for binding NBS DNA |
| --- | --- |
| NYAV | ≤ 0.2 |
| SPPA | ≤ 0.2 |
| QITF | ≤ 0.2 |
| WYGR | ≤ 0.2 |
| HMNS | ≤ 0.2 |
| ATYG | ≤ 0.2 |
| DLHM | ≤ 0.2 |
| GSFC | ≤ 0.2 |
| RSTH | ≤ 0.2 |
| SPRT | ≤ 0.2 |
| CKLP | ≤ 0.2 |
| FSTG | ≤ 0.2 |
| SPRI | ≤ 0.2 |
| FRNV | ≤ 0.2 |
| RMSK | ≤ 0.2 |
| INSS | ≤ 0.2 |
| CMRY | ≤ 0.2 |
| VVND | ≤ 0.2 |
| MMWN | ≤ 0.2 |
| QPGG | ≤ 0.2 |
| YTIN | ≤ 0.2 |
| QTID | ≤ 0.2 |
| LSET | ≤ 0.2 |

Source: a collection of fitness landscapes (doi:10.1016/j.celrep.2020.107928)
